The name of at least one read-out is uncertain.
Assays:
[1] = system: promyelocytic leukemia cell stain HL-60; assay: Cell differentiation-inducing activity test in HL-60 cell, each compound alone; format: cell-based; settings: HL-60, NBT reduction
Text: (§1) By using the above compounds, cell differentiation-inducing activity of each compound alone, and effect on cell differentiation-inducing action of a co-existing retinoid were examined. As a comparative and co-existing retinoid, Am80: 4-[(5,6,7,8-tetrahydro-5,5,8,8-tetramethyl-2-naphthalenyl)carbamoyl]benzoic acid (1×10^−10 M) was used. According to the method described in Japanese Patent Unexamined Publication (KOKAI) No.(Sho)61-76440/1986, promyelocytic leukemia cell stain HL-60 was used, and differentiation into granulocytic cells was determined by observing morphological change and measuring ability to reduce nitroblue tetrazolium (NBT). The ratios of differentiated cells shown in the following table were calculated from the ability of reducing NBT.

[2] = system: promyelocytic leukemia cell stain HL-60; assay: Effect on cell differentiation-inducing action of co-existing retinoid Am80 in HL-60 cell; format: cell-based; settings: HL-60, NBT reduction
Text: as §1

[3] = compound concentration 10^−7 M + 1 × 10^−10 M Am80
[4] = compound concentration 10^−8 M + 1 × 10^−10 M Am80
[5] = compound concentration 10^−9 M + 1 × 10^−10 M Am80
[6] = compound concentration 10^−10 M + 1 × 10^−10 M Am80
[7] = compound concentration 10^−11 M + 1 × 10^−10 M Am80

SMILES | Ratio of differentiated cells by each compound alone (%) ([1]; compound concentration 10^−6 M) | Ratio of differentiated cells by each compound alone (%) ([1]; compound concentration 10^−7 M) | Ratio of differentiated cells by each compound alone (%) ([1]; compound concentration 10^−8 M) | Ratio of differentiated cells by each compound co-existing with 1 × 10^−10 M Am80 (%) [2, 3] | Ratio of differentiated cells by each compound co-existing with 1 × 10^−10 M Am80 (%) [2, 4] | Ratio of differentiated cells by each compound co-existing with 1 × 10^−10 M Am80 (%) [2, 5] | Ratio of differentiated cells by each compound co-existing with 1 × 10^−10 M Am80 (%) [2, 6] | Ratio of differentiated cells by each compound co-existing with 1 × 10^−10 M Am80 (%) [2, 7]
CCN(c1cc(C(C)(C)C)cc(C(C)(C)C)c1)c1ncc(C(=O)O)cn1 [Compound 10, 2-[N-Ethyl-N-(3,5-di-tert-butylphenyl)amino]pyrimidine-5-carboxylic Acid] | 2% | 3% | 1% | 81% | 38% | 18% | 15% | 18%
Cc1cc2c(cc1N(CC1CC1)c1ncc(C(=O)O)cn1)C(C)(C)CCC2(C)C [Compound 8, 2-[N-Cyclopropylmethyl-N-(5,6,7,8-tetrahydro-3,5,5,8,8-pentamethylnaphthalen-2-yl)amino]pyrimidine-5-carboxylic Acid] | 4% | 4% | 3% | 81% | 84% | 63% | 26% | 9%
CN(c1ccc2c(c1)C(C)(C)CCC2(C)C)c1ncc(C(=O)O)cn1 [Compound 2, 2-[N-Methyl-N-(5,6,7,8-tetrahydro-5,5,8,8-tetramethyl-naphthalen-2-yl)amino]pyrimidine-5-carboxylic Acid] | 81% | 37% | 2% | 78% | 81% | 18% | 7% | 6%
CCCN(c1ncc(C(=O)O)cn1)c1cc2c(cc1C)C(C)(C)CCC2(C)C [Compound 7, 2-[N-n-Propyl-N-(5,6,7,8-tetrahydro-3,5,5,8,8-pentamethyl-naphthalen-2-yl)amino]pyrimidine-5-carboxylic Acid] | 2% | 3% | 2% | 82% | 83% | 76% | 53% | 23%
CCCN(c1ncc(C(=O)O)cn1)c1cc(C(C)(C)C)ccc1C(C)(C)C [Compound 11, 2-[N-(3,6-Di-tert-butylphenyl)-N-n-propylamino]pyrimidine-5-carboxylic Acid] | 1% | 2% | 1% | 86% | 87% | 47% | 29% | 18%
CN(c1cc(C(C)(C)C)cc(C(C)(C)C)c1)c1ncc(C(=O)O)cn1 [Compound 9, 2-[N-(3,5-Di-tert-butylphenyl)-N-methylamino] pyrimidine-5-carboxylic Acid] | 1% | 1% | 2% | 24% | 18% | 14% | 17% | 12%
Cc1cc2c(cc1N(C)c1ncc(C(=O)O)cn1)C(C)(C)CCC2(C)C [Compound 6, 2-[N-Methyl-N-(5,6,7,8-tetrahydro-3,5,5,8,8-pentamethyl-naphthalen-2-yl)amino]pyrimidine-5-carboxylic Acid] | 10% | 11% | 2% | 78% | 81% | 58% | 16% | 5%
CC1(C)CCC(C)(C)c2cc(Nc3ncc(C(=O)O)cn3)ccc21 [Compound 1, 2-[N-(5,6,7,8-Tetrahydro-5,5,8,8-tetramethylnaphthalen-2-yl)amino]pyrimidine-5-carboxylic Acid] | 44% | 2% | 2% | 39% | 17% | 22% | 17% | 19%
CC1(C)CCC(C)(C)c2cc(N(CC3CC3)c3ncc(C(=O)O)cn3)ccc21 [Compound 4, 2-[N-Cyclopropylmethyl-N-(5,6,7,8-tetrahydro-5,5,8,8-tetramethylnaphthalen-2-yl)amino]pyrimidine-5-carboxylic Acid] | 6% | 9% | 6% | 89% | 83% | 74% | 71% | 43%
Cc1cc2c(cc1Nc1ncc(C(=O)O)cn1)C(C)(C)CCC2(C)C [Compound 5, 2-[N-(5,6,7,8-Tetrahydro-3,5,5,8,8-pentamethylnaphthalen-2-yl)amino]pyrimidine-5-carboxylic Acid] | 9% | 3% | 1% | 85% | 49% | 25% | 18% | 18%
CC(C)(C)c1cc(N(CC2CC2)c2ncc(C(=O)O)cn2)cc(C(C)(C)C)c1 [Compound 12, 2-[N-Cyclopropylmethyl-N-(3,5-di-tert-butylphenyl)-amino]pyrimidine5-carboxylic Acid] | 3% | 3% | 2% | 90% | 80% | 59% | 27% | 19%

Reference: US6869959B1, “Heterocyclic carboxylic acid derivatives” (Institute of Medicinal Molecular Design Inc., priority 1999, dated 2005)
